Source: a compilation of properties of binary mixtures (doi:10.1007/s11581-010-0511-5)
The densities may have been worked out from excess volumes.

Test: xn = mol fraction of the nth substance listed
Details: 101 kPa

Question: Which mass density (293.15 K, x1 = 0.11) does the source give for `CCCC[N+]1(C)CCCC1.O=S(=O)([N-]S(=O)(=O)C(F)(F)F)C(F)(F)F` + CO here?
Answer: 1103 kg/m3

Question: What about the mass density (293.15 K, x1 = 0.16) of the same compound?
Answer: 1183 kg/m3

Question: What about the mass density (293.15 K, x1 = 0.21) of the same compound?
Answer: 1234.2 kg/m3

Question: What about the mass density (293.15 K, x1 = 0.32) of the same compound?
Answer: 1287.3 kg/m3

Question: What about the mass density (293.15 K, x1 = 0.42) of the same compound?
Answer: 1313.6 kg/m3

Question: And the mass density (293.15 K, x1 = 0.47)?
Answer: 1324.1 kg/m3

Question: What about the mass density (293.15 K, x1 = 0.53) of the same compound?
Answer: 1334 kg/m3

Question: What about the mass density (293.15 K, x1 = 0.58) of the same compound?
Answer: 1343.1 kg/m3

Question: What about the mass density (293.15 K, x1 = 0.63) of the same compound?
Answer: 1350.9 kg/m3

Question: And the mass density (293.15 K, x1 = 0.68)?
Answer: 1356.5 kg/m3

Question: What about the mass density (293.15 K, x1 = 0.74) of the same compound?
Answer: 1359.6 kg/m3

Question: What about the mass density (293.15 K, x1 = 0.79) of the same compound?
Answer: 1360.5 kg/m3

Question: What about the mass density (293.15 K, x1 = 0.84) of the same compound?
Answer: 1360.2 kg/m3

Question: And the mass density (293.15 K, x1 = 0.89)?
Answer: 1361.3 kg/m3

Question: What about the mass density (293.15 K, x1 = 0.95) of the same compound?
Answer: 1368.2 kg/m3

Question: What about the mass density (293.15 K, x1 = 1) of the same compound?
Answer: 1387 kg/m3

Question: What about the mass density (298.15 K, x1 = 0.05) of the same compound?
Answer: 977 kg/m3

Question: What about the mass density (298.15 K, x1 = 0.11) of the same compound?
Answer: 1098 kg/m3

Question: What about the mass density (298.15 K, x1 = 0.16) of the same compound?
Answer: 1178 kg/m3

Question: What about the mass density (298.15 K, x1 = 0.21) of the same compound?
Answer: 1229.4 kg/m3

Question: What about the mass density (298.15 K, x1 = 0.32) of the same compound?
Answer: 1282.6 kg/m3

Question: And the mass density (298.15 K, x1 = 0.37)?
Answer: 1297.2 kg/m3

Question: What about the mass density (298.15 K, x1 = 0.42) of the same compound?
Answer: 1308.8 kg/m3

Question: And the mass density (298.15 K, x1 = 0.47)?
Answer: 1319.3 kg/m3

Question: And the mass density (298.15 K, x1 = 0.53)?
Answer: 1329.2 kg/m3

Question: And the mass density (298.15 K, x1 = 0.58)?
Answer: 1338.3 kg/m3

Question: What about the mass density (298.15 K, x1 = 0.63) of the same compound?
Answer: 1346.1 kg/m3

Question: And the mass density (298.15 K, x1 = 0.74)?
Answer: 1355.2 kg/m3

Question: And the mass density (298.15 K, x1 = 0.79)?
Answer: 1356.1 kg/m3

Question: And the mass density (298.15 K, x1 = 0.84)?
Answer: 1355.9 kg/m3

Question: And the mass density (298.15 K, x1 = 0.89)?
Answer: 1357.1 kg/m3

Question: What about the mass density (298.15 K, x1 = 0.95) of the same compound?
Answer: 1363.8 kg/m3

Question: And the mass density (298.15 K, x1 = 1)?
Answer: 1382 kg/m3

Question: What about the mass density (303.15 K, x1 = 0.05) of the same compound?
Answer: 972 kg/m3

Question: And the mass density (303.15 K, x1 = 0.11)?
Answer: 1093 kg/m3

Question: What about the mass density (303.15 K, x1 = 0.16) of the same compound?
Answer: 1173 kg/m3

Question: What about the mass density (303.15 K, x1 = 0.21) of the same compound?
Answer: 1224.5 kg/m3

Question: And the mass density (303.15 K, x1 = 0.32)?
Answer: 1277.8 kg/m3

Question: What about the mass density (303.15 K, x1 = 0.37) of the same compound?
Answer: 1292.4 kg/m3

Question: And the mass density (303.15 K, x1 = 0.47)?
Answer: 1314.5 kg/m3

Question: What about the mass density (303.15 K, x1 = 0.53) of the same compound?
Answer: 1324.3 kg/m3

Question: And the mass density (303.15 K, x1 = 0.58)?
Answer: 1333.5 kg/m3

Question: And the mass density (303.15 K, x1 = 0.63)?
Answer: 1341.3 kg/m3

Question: And the mass density (303.15 K, x1 = 0.68)?
Answer: 1347.2 kg/m3

Question: What about the mass density (303.15 K, x1 = 0.74) of the same compound?
Answer: 1350.6 kg/m3

Question: What about the mass density (303.15 K, x1 = 0.79) of the same compound?
Answer: 1351.8 kg/m3

Question: What about the mass density (303.15 K, x1 = 0.84) of the same compound?
Answer: 1351.8 kg/m3

Question: And the mass density (303.15 K, x1 = 0.89)?
Answer: 1353.2 kg/m3

Question: What about the mass density (303.15 K, x1 = 0.95) of the same compound?
Answer: 1359.9 kg/m3

Question: And the mass density (303.15 K, x1 = 1)?
Answer: 1378 kg/m3

Question: What about the mass density (308.15 K, x1 = 0.05) of the same compound?
Answer: 967 kg/m3

Question: What about the mass density (308.15 K, x1 = 0.11) of the same compound?
Answer: 1088 kg/m3

Question: And the mass density (308.15 K, x1 = 0.16)?
Answer: 1168 kg/m3

Question: And the mass density (308.15 K, x1 = 0.21)?
Answer: 1219.7 kg/m3

Question: And the mass density (308.15 K, x1 = 0.32)?
Answer: 1273.1 kg/m3

Question: And the mass density (308.15 K, x1 = 0.37)?
Answer: 1287.7 kg/m3

Question: And the mass density (308.15 K, x1 = 0.42)?
Answer: 1299.3 kg/m3

Question: And the mass density (308.15 K, x1 = 0.53)?
Answer: 1319.5 kg/m3

Question: What about the mass density (308.15 K, x1 = 0.58) of the same compound?
Answer: 1328.7 kg/m3

Question: What about the mass density (308.15 K, x1 = 0.63) of the same compound?
Answer: 1336.6 kg/m3

Question: And the mass density (308.15 K, x1 = 0.74)?
Answer: 1346.1 kg/m3

Question: What about the mass density (308.15 K, x1 = 0.79) of the same compound?
Answer: 1347.5 kg/m3

Question: And the mass density (308.15 K, x1 = 0.84)?
Answer: 1347.7 kg/m3

Question: What about the mass density (308.15 K, x1 = 0.89) of the same compound?
Answer: 1349.3 kg/m3

Question: And the mass density (308.15 K, x1 = 0.95)?
Answer: 1356.1 kg/m3

Question: And the mass density (308.15 K, x1 = 1)?
Answer: 1374 kg/m3

Question: What about the mass density (313.15 K, x1 = 0.05) of the same compound?
Answer: 962 kg/m3

Question: And the mass density (313.15 K, x1 = 0.11)?
Answer: 1084 kg/m3

Question: What about the mass density (313.15 K, x1 = 0.16) of the same compound?
Answer: 1164 kg/m3

Question: What about the mass density (313.15 K, x1 = 0.21) of the same compound?
Answer: 1214.9 kg/m3

Question: And the mass density (313.15 K, x1 = 0.26)?
Answer: 1247.3 kg/m3

Question: What about the mass density (313.15 K, x1 = 0.37) of the same compound?
Answer: 1282.9 kg/m3

Question: And the mass density (313.15 K, x1 = 0.42)?
Answer: 1294.5 kg/m3

Question: And the mass density (313.15 K, x1 = 0.47)?
Answer: 1304.8 kg/m3

Question: What about the mass density (313.15 K, x1 = 0.58) of the same compound?
Answer: 1323.8 kg/m3

Question: And the mass density (313.15 K, x1 = 0.63)?
Answer: 1331.8 kg/m3

Question: What about the mass density (313.15 K, x1 = 0.79) of the same compound?
Answer: 1343.2 kg/m3

Question: And the mass density (313.15 K, x1 = 0.89)?
Answer: 1345.3 kg/m3

Question: What about the mass density (313.15 K, x1 = 0.95) of the same compound?
Answer: 1352.2 kg/m3

Question: What about the mass density (318.15 K, x1 = 0.05) of the same compound?
Answer: 957 kg/m3

Question: And the mass density (318.15 K, x1 = 0.11)?
Answer: 1079 kg/m3

Question: What about the mass density (318.15 K, x1 = 0.16) of the same compound?
Answer: 1159 kg/m3

Question: What about the mass density (318.15 K, x1 = 0.26) of the same compound?
Answer: 1242.6 kg/m3

Question: What about the mass density (318.15 K, x1 = 0.32) of the same compound?
Answer: 1263.5 kg/m3

Question: What about the mass density (318.15 K, x1 = 0.37) of the same compound?
Answer: 1278.1 kg/m3

Question: And the mass density (318.15 K, x1 = 0.42)?
Answer: 1289.7 kg/m3

Question: And the mass density (318.15 K, x1 = 0.47)?
Answer: 1300 kg/m3

Question: And the mass density (318.15 K, x1 = 0.53)?
Answer: 1309.8 kg/m3

Question: What about the mass density (318.15 K, x1 = 0.58) of the same compound?
Answer: 1319 kg/m3

Question: What about the mass density (318.15 K, x1 = 0.74) of the same compound?
Answer: 1337.1 kg/m3

Question: What about the mass density (318.15 K, x1 = 0.89) of the same compound?
Answer: 1341.1 kg/m3

Question: What about the mass density (318.15 K, x1 = 1) of the same compound?
Answer: 1365 kg/m3

Question: What does the source list for `CO` + CCCC[N+]1(C)CCCC1.O=S(=O)([N-]S(=O)(=O)C(F)(F)F)C(F)(F)F?
Answer: mass density (298.15 K, x2 = 0): 788.6 kg/m3; mass density (303.15 K, x2 = 0): 784 kg/m3; mass density (308.15 K, x2 = 0): 779.4 kg/m3; mass density (313.15 K, x2 = 0): 774.8 kg/m3; mass density (318.15 K, x2 = 0): 770.3 kg/m3
